Laboratory results from patent US20240400703A1 (Genmab, published 2024).

Assays:
[1] = target: T1, mouse OX40 expressed on ExpiCHO-S cells (mouse, UniProt P47741 20-272); test: flow cytometry, transfected ExpiCHO-S cells, gMFI (PE)
T1 construct: full-length entry; also called OX40mm; wild-type mouse OX40
T1 sequence: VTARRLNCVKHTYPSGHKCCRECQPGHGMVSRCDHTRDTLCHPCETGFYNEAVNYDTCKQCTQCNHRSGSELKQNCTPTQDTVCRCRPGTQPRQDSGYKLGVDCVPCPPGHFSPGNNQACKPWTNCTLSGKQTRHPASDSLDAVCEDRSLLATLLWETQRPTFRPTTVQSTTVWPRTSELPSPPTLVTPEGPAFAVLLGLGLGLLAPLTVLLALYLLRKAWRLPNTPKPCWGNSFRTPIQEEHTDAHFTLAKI

[2] = target: T2, human OX40 with mouse CRD4 (human with mouse CRD4, UniProt P43489 29-277); test: as above
T2 construct: on ExpiCHO-S cells; also called OX40-CRD4mm; Shuffle 4
T2 chain: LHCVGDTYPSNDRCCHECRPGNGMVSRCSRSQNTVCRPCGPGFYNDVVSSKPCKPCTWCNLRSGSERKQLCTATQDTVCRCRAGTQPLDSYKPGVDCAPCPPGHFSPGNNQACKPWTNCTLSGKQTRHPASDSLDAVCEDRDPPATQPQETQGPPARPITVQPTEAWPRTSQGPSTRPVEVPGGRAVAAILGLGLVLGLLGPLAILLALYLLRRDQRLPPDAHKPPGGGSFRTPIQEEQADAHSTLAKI
Procedure: The four shuffle constructs, as well as wild-type human and mouse OX40 were transiently expressed on ExpiCHO-S cells using the ExpiFectamine™ CHO Transfection Kit (ThermoFisher, cat. no. A29131), according to the manufacturer's protocol. […] Next, cells were washed twice in FACS buffer 1, were resuspended in a 30 μL solution of viability marker ToPro-3 (Invitrogen, cat. no. T3605, diluted 1:10,000) in FACS buffer 1 supplemented with 2 mM EDTA, and were analyzed on an iQue Screener Plus (Intellicyt Corporation, USA). Data were analyzed using FlowJo software and visualized using GraphPad Prism.

B1: IgG1-CD134-11D4 (antibody)
heavy: EVQLVESGGGLVQPGGSLRLSCAASGFTFSSYSMNWVRQAPGKGLEWVSYISSSSSTIDYADSVKGRFTISRDNAKNSLYLQMNSLRDEDTAVYYCARESGWYLFDYWGQGTLVTVSSASTKGPSVFPLAPSSKSTSGGTAALGCLVKDYFPEPVTVSWNSGALTSGVHTFPAVLQSSGLYSLSSVVTVPSSSLGTQTYICNVNHKPSNTKVDKRV[letters of human IgG1 Fc not shown]
light: [letters of about 200 residues not shown]
notes: human IgG1, wild-type Fc
binding result [1]: no binding (tested: 50 µg/mL)
EC50 (read off the curve) [2]: ~0.06 µg/mL
